Not every detail of the peptide structures is certain; ends, links or a residue may be inferred. Numbered stars: 1 amine (or outer) side, 2 acyl side, 3 side chain; on linkers, the order of the positions; unused ones are H or OH. Square brackets hold non-standard residues; d marks the D form. Peptide text beside a SMILES is read from it. * marks the point of attachment. dLys(Nε-C(NCN)NHBu) = CCCCNC(=NC#N)NCCCC[C@@H](N)C(=O)O; X1 = Nc1nc(Nc2ccc(C[C@@H](N[*:1])C(=O)[*:2])cc2)n[nH]1; X13 = N#CN=C(NCCCC[C@@H](N[*:1])C(=O)[*:2])NCc1ccccn1; X28 = N#CN=C(NCCC[C@@H](N[*:1])C(=O)[*:2])NCc1ccccn1; X31 = N#CN=C(NCCC[C@H](N[*:1])C(=O)[*:2])NCc1ccccn1; X8 = CCCCNC(=NC(N)=O)NCCCC[C@H](N[*:1])C(=O)[*:2]; Triazol3yl(1,2,4-5-NH2) = Nc1nc(*)n[nH]1; dPhe(4-Cl) = N[C@H](Cc1ccc(Cl)cc1)C(=O)O; d2Nal = N[C@H](Cc1ccc2ccccc2c1)C(=O)O; Lys(iPr) = CC(C)NCCCC[C@H](N)C(=O)O; d3Pal = N[C@H](Cc1cccnc1)C(=O)O; Nicotinoyl = O=C(c1cccnc1)*; dOrn = NCCC[C@@H](N)C(=O)O; Orn = NCCC[C@H](N)C(=O)O
Tested on: ovulation in female rats
Test: in vivo test of effectiveness to prevent ovulation in female rats
Parameters: species or system rat
Conditions: injected about noon on day of proestrus, female Sprague-Dawley rats, ovulating/treated

| SMILES | Rats Ovulating (dosage 2.5 micrograms) | Rats Ovulating (dosage 1.0 micrograms) | further results |
| --- | --- | --- | --- |
| CC(=O)N[C@H](Cc1ccc2ccccc2c1)C(=O)N[C@H](Cc1ccc(Cl)cc1)C(=O)N[C@H](Cc1cccnc1)C(=O)N[C@@H](CO)C(=O)N[C@@H](CCCNC(=NC#N)NCc1ccccn1)C(=O)N[C@H](CCCNC(=NC#N)NCc1ccccn1)C(=O)N[C@@H](CC(C)C)C(=O)N[C@@H](CCCCNC(C)C)C(=O)N1CCC[C@H]1C(=O)N[C@H](C)C(N)=O [Peptide 102] (Ac-[d2Nal][dPhe(4-Cl)][d3Pal]S[X31][X28]L[Lys(iPr)]P[dA]-NH2) | 2/9 |  |  |
| CC(=O)N[C@H](Cc1ccc2ccccc2c1)C(=O)N[C@H](Cc1ccc(Cl)cc1)C(=O)N[C@H](Cc1cccnc1)C(=O)N[C@@H](CO)C(=O)N[C@@H](CCCCNc1n[nH]c(N)n1)C(=O)N[C@H](CCCCNc1n[nH]c(N)n1)C(=O)N[C@@H](CC(C)C)C(=O)N[C@@H](CCCCNC(C)C)C(=O)N1CCC[C@H]1C(=O)N[C@H](C)C(N)=O [Peptide 103B] (Ac-[d2Nal][dPhe(4-Cl)][d3Pal]SK(Triazol3yl(1,2,4-5-NH2))[dK](Triazol3yl(1,2,4-5-NH2))L[Lys(iPr)]P[dA]-NH2) | 0/7 | 3/9 | Rats Ovulating (dosage 0.5 micrograms): 7/8 |
| CC(=O)N[C@H](Cc1ccc2ccccc2c1)C(=O)N[C@H](Cc1ccc(Cl)cc1)C(=O)N[C@H](Cc1cccnc1)C(=O)N[C@@H](CO)C(=O)N[C@@H](CCCNc1n[nH]c(N)n1)C(=O)N[C@H](CCCNc1n[nH]c(N)n1)C(=O)N[C@@H](CC(C)C)C(=O)N[C@@H](CCCCNC(C)C)C(=O)N1CCC[C@H]1C(=O)N[C@H](C)C(N)=O [Peptide 103] (Ac-[d2Nal][dPhe(4-Cl)][d3Pal]S[Orn](Triazol3yl(1,2,4-5-NH2))[dOrn](Triazol3yl(1,2,4-5-NH2))L[Lys(iPr)]P[dA]-NH2) | 5/7 |  |  |
| CC(=O)N[C@H](Cc1ccc2ccccc2c1)C(=O)N[C@H](Cc1ccc(Cl)cc1)C(=O)N[C@H](Cc1cccnc1)C(=O)N[C@@H](CO)C(=O)N[C@@H](CCCCNC(=O)c1cccnc1)C(=O)N[C@H](CCCCNC(=O)c1cccnc1)C(=O)N[C@@H](CC(C)C)C(=O)N[C@@H](CCCCNc1n[nH]c(N)n1)C(=O)N1CCC[C@H]1C(=O)N[C@H](C)C(N)=O [Peptide 105A] (Ac-[d2Nal][dPhe(4-Cl)][d3Pal]SK(Nicotinoyl)[dK](Nicotinoyl)LK(Triazol3yl(1,2,4-5-NH2))P[dA]-NH2) |  |  | Rats Ovulating (dosage 5.0 micrograms): 4/6 |
| CC(=O)N[C@H](Cc1ccc2ccccc2c1)C(=O)N[C@H](Cc1ccc(Cl)cc1)C(=O)N[C@H](Cc1cccnc1)C(=O)N[C@@H](CO)C(=O)N[C@@H](CCCNC(=NC#N)NCc1ccccn1)C(=O)N[C@H](Cc1ccc2ccccc2c1)C(=O)N[C@@H](CC(C)C)C(=O)N[C@@H](CCCCNC(C)C)C(=O)N1CCC[C@H]1C(=O)N[C@H](C)C(N)=O [Peptide 105] (Ac-[d2Nal][dPhe(4-Cl)][d3Pal]S[X31][d2Nal]L[Lys(iPr)]P[dA]-NH2) | 0/5 |  |  |
| CC(=O)N[C@H](Cc1ccc2ccccc2c1)C(=O)N[C@H](Cc1ccc(Cl)cc1)C(=O)N[C@H](Cc1cccnc1)C(=O)N[C@@H](CO)C(=O)N[C@@H](CCCCNc1n[nH]c(N)n1)C(=O)N[C@H](CCCCNC(=O)c1cccnc1)C(=O)N[C@@H](CC(C)C)C(=O)N[C@@H](CCCCNC(C)C)C(=O)N1CCC[C@H]1C(=O)N[C@H](C)C(N)=O [Peptide 106A] (Ac-[d2Nal][dPhe(4-Cl)][d3Pal]SK(Triazol3yl(1,2,4-5-NH2))[dK](Nicotinoyl)L[Lys(iPr)]P[dA]-NH2) |  | 7/7 | Rats Ovulating (dosage 2.0 micrograms): 0/5 |
| CC(=O)N[C@H](Cc1ccc2ccccc2c1)C(=O)N[C@H](Cc1ccc(Cl)cc1)C(=O)N[C@H](Cc1cccnc1)C(=O)N[C@@H](CO)C(=O)N[C@@H](CCCCNC(=O)c1cccnc1)C(=O)N[C@H](CCCCNc1n[nH]c(N)n1)C(=O)N[C@@H](CC(C)C)C(=O)N[C@@H](CCCCNC(C)C)C(=O)N1CCC[C@H]1C(=O)N[C@H](C)C(N)=O [Peptide 106B] (Ac-[d2Nal][dPhe(4-Cl)][d3Pal]SK(Nicotinoyl)[dK](Triazol3yl(1,2,4-5-NH2))L[Lys(iPr)]P[dA]-NH2) | 0/6 | 4/6 |  |
| CCCCNC(=NC(N)=O)NCCCC[C@H](NC(=O)[C@H](CC(C)C)NC(=O)[C@@H](CCCCNC(=O)c1cccnc1)NC(=O)[C@H](CCCCNC(=O)c1cccnc1)NC(=O)[C@H](CO)NC(=O)[C@@H](Cc1cccnc1)NC(=O)[C@@H](Cc1ccc(Cl)cc1)NC(=O)[C@@H](Cc1ccc2ccccc2c1)NC(C)=O)C(=O)N1CCC[C@H]1C(=O)N[C@H](C)C(N)=O [Peptide 106] (Ac-[d2Nal][dPhe(4-Cl)][d3Pal]SK(Nicotinoyl)[dK](Nicotinoyl)L[X8]P[dA]-NH2) |  |  | Rats Ovulating (dosage 5.0 micrograms): 0/7 |
| CCCCNC(=NC#N)NCCCC[C@@H](NC(=O)[C@@H](Cc1ccc(Cl)cc1)NC(=O)[C@@H](Cc1ccc2ccccc2c1)NC(C)=O)C(=O)N[C@@H](CO)C(=O)N[C@@H](Cc1ccc(O)cc1)C(=O)N[C@H](CCCNC(=N)N)C(=O)N[C@@H](CC(C)C)C(=O)N[C@@H](CCCNC(=N)N)C(=O)N1CCC[C@H]1C(=O)N[C@H](C)C(N)=O [Peptide 111] (Ac-[d2Nal][dPhe(4-Cl)][dLys(Nε-C(NCN)NHBu)]SY[dR]LRP[dA]-NH2) |  | 0/5 | Rats Ovulating (dosage 0.5 micrograms): 5/7 |
| CC(=O)N[C@H](Cc1ccc2ccccc2c1)C(=O)N[C@H](Cc1ccc(Cl)cc1)C(=O)N[C@H](CCCCNC(=NC#N)NCc1ccccn1)C(=O)N[C@@H](CO)C(=O)N[C@@H](Cc1ccc(O)cc1)C(=O)N[C@H](CCCNC(=N)N)C(=O)N[C@@H](CC(C)C)C(=O)N[C@@H](CCCNC(=N)N)C(=O)N1CCC[C@H]1C(=O)N[C@H](C)C(N)=O [Peptide 112] (Ac-[d2Nal][dPhe(4-Cl)][X13]SY[dR]LRP[dA]-NH2) |  | 4/8 |  |
| CC(=O)N[C@H](Cc1ccc2ccccc2c1)C(=O)N[C@H](Cc1ccc(Cl)cc1)C(=O)N[C@H](CCCCNc1n[nH]c(N)n1)C(=O)N[C@@H](CO)C(=O)N[C@@H](Cc1ccc(O)cc1)C(=O)N[C@H](CCCCNc1n[nH]c(N)n1)C(=O)N[C@@H](CC(C)C)C(=O)N[C@@H](CCCCNC(C)C)C(=O)N1CCC[C@H]1C(=O)N[C@H](C)C(N)=O [Peptide 113A] (Ac-[d2Nal][dPhe(4-Cl)][dK](Triazol3yl(1,2,4-5-NH2))SY[dK](Triazol3yl(1,2,4-5-NH2))L[Lys(iPr)]P[dA]-NH2) | 1/15 |  | Rats Ovulating (dosage 5.0 micrograms): 0/6 |
| CC(=O)N[C@H](Cc1ccc2ccccc2c1)C(=O)N[C@H](Cc1ccc(Cl)cc1)C(=O)N[C@H](CCCCNc1n[nH]c(N)n1)C(=O)N[C@@H](CO)C(=O)N[C@@H](Cc1ccc(O)cc1)C(=O)N[C@H](CCCNC(=N)N)C(=O)N[C@@H](CC(C)C)C(=O)N[C@@H](CCCNC(=N)N)C(=O)N1CCC[C@H]1C(=O)N[C@H](C)C(N)=O [Peptide 113] (Ac-[d2Nal][dPhe(4-Cl)][dK](Triazol3yl(1,2,4-5-NH2))SY[dR]LRP[dA]-NH2) |  | 5/6 |  |
| CC(=O)N[C@H](Cc1ccc2ccccc2c1)C(=O)N[C@H](Cc1ccc(Cl)cc1)C(=O)N[C@H](CCCCNc1n[nH]c(N)n1)C(=O)N[C@@H](CO)C(=O)N[C@@H](CCCNC(=N)N)C(=O)N[C@H](Cc1ccc2ccccc2c1)C(=O)N[C@@H](CC(C)C)C(=O)N[C@@H](CCCNC(=N)N)C(=O)N1CCC[C@H]1C(=O)N[C@H](C)C(N)=O [Peptide 115] (Ac-[d2Nal][dPhe(4-Cl)][dK](Triazol3yl(1,2,4-5-NH2))SR[d2Nal]LRP[dA]-NH2) | 2/8 |  |  |
| CCCCNC(=NC#N)NCCCC[C@@H](NC(=O)[C@@H](Cc1ccc(Cl)cc1)NC(=O)[C@@H](Cc1ccc2ccccc2c1)NC(C)=O)C(=O)N[C@@H](CO)C(=O)N[C@@H](Cc1ccc(O)cc1)C(=O)N[C@H](CCCNC(=N)N)C(=O)N[C@@H](CC(C)C)C(=O)N[C@@H](CCCCNC(C)C)C(=O)N1CCC[C@H]1C(=O)N[C@H](C)C(N)=O [Peptide 116] (Ac-[d2Nal][dPhe(4-Cl)][dLys(Nε-C(NCN)NHBu)]SY[dR]L[Lys(iPr)]P[dA]-NH2) | 0/6 | 2/8 |  |
| CC(=O)N[C@H](Cc1ccc2ccccc2c1)C(=O)N[C@H](Cc1ccc(Cl)cc1)C(=O)N[C@H](CCCCNc1n[nH]c(N)n1)C(=O)N[C@@H](CO)C(=O)N[C@@H](Cc1ccc(O)cc1)C(=O)N[C@H](Cc1cccnc1)C(=O)N[C@@H](CC(C)C)C(=O)N[C@@H](CCCNC(=N)N)C(=O)N1CCC[C@H]1C(=O)N[C@H](C)C(N)=O [Peptide 117A] (Ac-[d2Nal][dPhe(4-Cl)][dK](Triazol3yl(1,2,4-5-NH2))SY[d3Pal]LRP[dA]-NH2) | 0/7 | 4/9 |  |
| CC(=O)N[C@H](Cc1ccc2ccccc2c1)C(=O)N[C@H](Cc1ccc(Cl)cc1)C(=O)N[C@H](Cc1ccc(Nc2n[nH]c(N)n2)cc1)C(=O)N[C@@H](CO)C(=O)N[C@@H](Cc1ccc(O)cc1)C(=O)N[C@H](Cc1cccnc1)C(=O)N[C@@H](CC(C)C)C(=O)N[C@@H](CCCCNC(C)C)C(=O)N1CCC[C@H]1C(=O)N[C@H](C)C(N)=O [Peptide 117B] (Ac-[d2Nal][dPhe(4-Cl)][X1]SY[d3Pal]L[Lys(iPr)]P[dA]-NH2) |  |  | Rats Ovulating (dosage 15 micrograms): 1/5 |
| CC(=O)N[C@H](Cc1ccc2ccccc2c1)C(=O)N[C@H](Cc1ccc(Cl)cc1)C(=O)N[C@H](CCCCNc1n[nH]c(N)n1)C(=O)N[C@@H](CO)C(=O)N[C@@H](Cc1ccc(O)cc1)C(=O)N[C@H](CCCNC(=N)N)C(=O)N[C@@H](CC(C)C)C(=O)N[C@@H](CCCCNC(C)C)C(=O)N1CCC[C@H]1C(=O)N[C@H](C)C(N)=O [Peptide 117] (Ac-[d2Nal][dPhe(4-Cl)][dK](Triazol3yl(1,2,4-5-NH2))SY[dR]L[Lys(iPr)]P[dA]-NH2) |  |  | Rats Ovulating (dosage 5.0 micrograms): 2/5; Rats Ovulating (dosage 10 micrograms): 0/6 |
| CC(=O)N[C@H](Cc1ccc2ccccc2c1)C(=O)N[C@H](Cc1ccc(Cl)cc1)C(=O)N[C@H](CCCCNC(=NC#N)NCc1ccccn1)C(=O)N[C@@H](CO)C(=O)N[C@@H](CCCNC(=N)N)C(=O)N[C@H](Cc1ccc2ccccc2c1)C(=O)N[C@@H](CC(C)C)C(=O)N[C@@H](CCCNC(=N)N)C(=O)N1CCC[C@H]1C(=O)N[C@H](C)C(N)=O [Peptide 120A] (Ac-[d2Nal][dPhe(4-Cl)][X13]SR[d2Nal]LRP[dA]-NH2) |  |  | Rats Ovulating (dosage 5.0 micrograms): 4/6 |
